Measurements taken from paper PMC10538751.
No constants are given. Whether binding was seen depends on the method and setting. For part of these data: Binding seen in cells or lysates may run through a third protein. Some entries that bind do so weakly or less than the wild type. For part of these data: Tags and fused reporters may be left off the sequences shown.

Protein sequences, listed by entry. Tags and fused reporters are not part of them. Lines headed by an entry give the natural chain unless they say otherwise; changes in a name come on top.
UniProt Q9LU77: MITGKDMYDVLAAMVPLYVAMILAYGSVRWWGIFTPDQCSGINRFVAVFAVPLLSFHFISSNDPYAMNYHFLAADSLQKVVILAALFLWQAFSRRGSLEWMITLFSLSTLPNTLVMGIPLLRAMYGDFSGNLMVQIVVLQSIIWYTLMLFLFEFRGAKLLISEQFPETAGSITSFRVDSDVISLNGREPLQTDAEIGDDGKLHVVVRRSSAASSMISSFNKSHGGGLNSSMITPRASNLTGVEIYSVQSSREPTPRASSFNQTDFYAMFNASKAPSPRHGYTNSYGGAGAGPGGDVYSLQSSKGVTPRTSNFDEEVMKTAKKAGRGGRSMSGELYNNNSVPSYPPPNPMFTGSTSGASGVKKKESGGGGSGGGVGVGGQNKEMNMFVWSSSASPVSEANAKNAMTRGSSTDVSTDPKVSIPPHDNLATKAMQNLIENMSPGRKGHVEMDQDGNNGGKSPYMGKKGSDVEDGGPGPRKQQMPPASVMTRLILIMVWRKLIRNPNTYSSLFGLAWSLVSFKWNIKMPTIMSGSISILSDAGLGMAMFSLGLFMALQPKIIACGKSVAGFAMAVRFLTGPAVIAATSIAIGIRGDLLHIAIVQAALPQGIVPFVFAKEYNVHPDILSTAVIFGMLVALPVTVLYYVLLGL
UniProt F4IHJ0: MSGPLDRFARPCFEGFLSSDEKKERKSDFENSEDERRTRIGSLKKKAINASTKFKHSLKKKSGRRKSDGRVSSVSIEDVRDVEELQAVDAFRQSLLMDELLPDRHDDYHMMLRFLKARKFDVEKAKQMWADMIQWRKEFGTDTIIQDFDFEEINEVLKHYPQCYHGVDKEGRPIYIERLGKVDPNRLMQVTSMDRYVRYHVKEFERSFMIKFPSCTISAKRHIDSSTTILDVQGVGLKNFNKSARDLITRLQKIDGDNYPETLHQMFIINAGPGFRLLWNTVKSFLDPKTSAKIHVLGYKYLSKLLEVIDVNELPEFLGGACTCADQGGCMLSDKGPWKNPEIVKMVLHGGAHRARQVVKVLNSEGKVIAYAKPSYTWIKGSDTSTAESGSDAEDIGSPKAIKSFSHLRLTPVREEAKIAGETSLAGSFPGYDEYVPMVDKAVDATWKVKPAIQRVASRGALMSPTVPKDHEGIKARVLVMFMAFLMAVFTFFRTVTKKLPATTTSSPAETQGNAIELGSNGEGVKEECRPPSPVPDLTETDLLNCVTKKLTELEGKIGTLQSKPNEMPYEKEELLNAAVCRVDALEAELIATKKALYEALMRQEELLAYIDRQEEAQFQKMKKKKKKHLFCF

Legend:
[1] = biological target: PIN2-GFP (PIN2pro:PIN2-EGFP) (Arabidopsis thaliana) (UniProt Q9LU77); assay: FRET or BRET; sensitized emission FRET in living roots between PIN2-GFP and SFH8-mScarlet (RPS5apro), epidermis and cortex
[2] = biological target: GST-SFH8 (full length, recombinant) (Arabidopsis thaliana) (UniProt F4IHJ0); assay: native gel or EMSA; native polyacrylamide gel electrophoresis of recombinant GST-SFH8 and GST-SFH8^ΔIDR over time, detected by α-GST; both purified
[3] = biological target: PIN2-GFP (PIN2pro:PIN2-EGFP) (Arabidopsis thaliana) (UniProt Q9LU77); assay: proximity ligation; whole-mount PLA (Duolink) on fixed, permeabilised roots of 4- to 5-day-old seedlings; antibody pairs α-GFP/α-SFH8, α-GFP/α-FLAG, α-PIN2/α-FLAG, α-mNeon/α-SFH8
[4] = biological target: T1, PIP2a-GFP (PLASMA MEMBRANE … PROTEIN 2a) (Arabidopsis thaliana) (UniProt P43286); assay: as above
T1 sequence: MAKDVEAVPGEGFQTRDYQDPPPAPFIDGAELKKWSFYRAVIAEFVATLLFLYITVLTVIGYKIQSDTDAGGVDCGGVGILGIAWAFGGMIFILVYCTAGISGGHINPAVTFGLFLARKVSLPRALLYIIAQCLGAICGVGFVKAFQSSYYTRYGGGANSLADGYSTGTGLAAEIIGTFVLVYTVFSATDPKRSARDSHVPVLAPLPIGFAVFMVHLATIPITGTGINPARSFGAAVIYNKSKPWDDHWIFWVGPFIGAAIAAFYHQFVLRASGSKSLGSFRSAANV

Row | Substance | binding [3] | binding [4] | also measured
1 | SFH8-mScarlet (RPS5apro), C-terminally tagged, in regions 3 and 4 (from UniProt F4IHJ0 85-633) (domain or fragment) |  |  | binding [1]: binds
2 | GST-SFH8 (full length, recombinant) (from UniProt F4IHJ0 1-633) |  |  | binding [2]: binds weakly
3 | SFH8^ΔIDR (endogenous SFH8 cleaved by ESP, region 3 onwards) (from UniProt F4IHJ0 85-633) (domain or fragment) | binds | no binding | 

Now from value to substance, other results behind:

Row | binding [3] | binding [4] | Substance | also measured
4 |  | no binding | SFH8, full length (endogenous, uncleaved form in the root) (from UniProt F4IHJ0 1-633) | 
5 | binds |  | SFH8-HF, C-terminally HF-tagged SFH8 as SFH8^ΔIDR (region 3 onwards) (from UniProt F4IHJ0 85-633) (domain or fragment) | 
